Results published in PubChem BioAssay AID540317 (National Center for Advancing Translational Sciences (NCATS), 2011).
About 2,200 (0.56%) of roughly 390,000 compounds were called active. The shares of active, inactive and inconclusive entries below differ from those in the screen. Calls come from the whole dose curve; as a rule, active = well fitted inhibition curve with a large enough effect; inconclusive = small, poorly fitted or top-dose-only effect; inactive = no such curve, though single readings can be large or run the other way. Potencies beside an inconclusive call are fits to weak or partial responses and may not hold up.

What follows are molecules tested against Chromobox protein homolog 1 (Homo sapiens) (UniProt P83916) (assay: HTS for Inhibitors of HP1-beta Chromodomain Interactions with Methylated Histone Tails). Conditions: AlphaScreen HP1-beta / biotin-H3K9me3 peptide binding; series mostly up to 114 µM; activity change, negative = inhibition: at the top concentration.
Sequence of UniProt P83916 (P83916 whole entry, looked up): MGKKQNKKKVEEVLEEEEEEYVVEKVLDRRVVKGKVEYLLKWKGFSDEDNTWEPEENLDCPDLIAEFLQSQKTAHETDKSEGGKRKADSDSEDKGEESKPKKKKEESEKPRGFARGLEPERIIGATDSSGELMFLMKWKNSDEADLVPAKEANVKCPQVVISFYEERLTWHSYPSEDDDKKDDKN
Outline: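 HP1-beta protein (50 nM final) preincubated 30 min at room temperature with biotinylated H3(1-18)K9me3 peptide (50 nM) in PBS pH 7.4, 0.01% Tween-20, then compound added for 30 min. AlphaScreen streptavidin donor/nickel chelate acceptor beads (10 ug/mL final), 30 min dark, luminescence read.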
Note: nearly all actives have a fitted effect of over 70% in size.
Potency is the fitted concentration of half-maximal effect; tags give direction and shape of the fitted curve.

Compound | Potency | activity change, negative = inhibition
COc1ccccc1CN1CCCC(C(=O)N2CCCCC2)C1 (stereo not drawn) | active: 70.8 µM | 
COc1ccc(CC(=O)Nc2c(C(=O)N3CCN(c4ncccn4)CC3)oc3ccccc23)cc1OC |  | inactive: 37%
COc1cccc(C(=O)/C=C2\Sc3ccccc3N2C)c1 |  | inactive: 163%
CC(=O)NC(=O)c1nnn(Cc2ccccc2)c1NC(C)=O | inconclusive: 79.4 µM [inhibitor, single point] | 
O=C(Nc1cccc2cccnc12)c1c(Cl)cc(Cl)cc1Cl |  | inactive: 44.7%
COc1cc(/C=N/NC(=O)CCN2CCN(C)CC2)cc2c1OCO2 | inconclusive: 25.1 µM [inhibitor, full curve] | 
CCC(O)CC(C(=O)NNc1ccccc1)C(=O)NNc1ccccc1 (stereo not drawn) | inconclusive: 89.1 µM [inhibitor, single point] | 
CC(=O)Nc1ccc(S(=O)(=O)Nc2nc3cc4c(cc3nc2Cl)OCCO4)cc1 |  | inactive: 14.9%
CN(CC(=O)Nc1cccc(F)c1)C(=O)c1ccc2c(c1)OCCO2 |  | inactive: 35.2%
CCOc1cc(-c2nn3cnnc3s2)cc(OCC)c1OCC |  | inactive: -8.91%
CN(C)c1ccc(N2C(=O)CSC2=S)cc1 | inconclusive: 5.01 µM [inhibitor, full curve] | 
COc1ccc(C(=O)/C=C(\C)Nc2ccc3c(c2)OCO3)cc1 | inconclusive: 44.7 µM [inhibitor, partial curve, poor fit] | 
O=C(Nc1ccccc1Cl)c1ccn[nH]1 |  | inactive: 26.3%
COc1ccc(OC)c(C2CC(=O)N3CN(c4ccc(C)c(Cl)c4)CSC3=C2C#N)c1 (stereo not drawn) | inconclusive: 15.8 µM [inhibitor, full curve] | 
COc1ccc(/C=N/NC(=O)c2[nH]c3ccc(C)cc3c2-c2ccccc2)c(C(=O)O)c1OC | inconclusive: 89.1 µM [inhibitor, partial curve, poor fit] | 
Oc1ccccc1CN1CCC(C(O)(c2ccccc2)c2ccccc2)CC1 | inconclusive: 28.2 µM [inhibitor, single point] | 
CCOc1cc(-c2nc(-c3ccc(Br)cc3)no2)cc(OCC)c1OCC |  | inactive: 51.8%
O=C(CSc1nnc2ccc(-c3cccnc3)nn12)Nc1ccc(F)cc1 |  | inactive: 32.7%
COc1cc([N+](=O)[O-])ccc1NC(=S)NC(=O)CC(C)(C)C | inconclusive: 22.4 µM [inhibitor, single point] | 
CC(C(=O)NCC1CCCCC1)N1CCN(S(=O)(=O)c2ccccc2F)CC1 (stereo not drawn) | inconclusive: 89.1 µM [inhibitor, single point] | 
Cc1cc(Cl)cc(Cl)c1OCCN1CCCC1 | inconclusive: 15.8 µM [inhibitor, partial curve, poor fit] | 
CCCCN1C(=O)/C(=C/C=C2/CC(C)(C)CN2C)SC1=S | inconclusive: 15.8 µM [inhibitor, partial curve, poor fit] | 
Cc1ccc(S(=O)(=O)C(CNC(=O)c2ccccc2F)c2cccs2)cc1 (stereo not drawn) |  | inactive: 13.7% [at 57 µM]
O=C1C2CC=CCC2C(=O)N1c1ccc(NCCc2cccc(F)c2)c([N+](=O)[O-])c1 (stereo not drawn) | inconclusive: 28.2 µM [inhibitor, single point] | 
CCOC(=O)Cn1c(C)c(Br)c(COC)c(C#N)c1=O |  | inactive: 8.03%

Compound | Potency | activity change, negative = inhibition
CC1CCC(NC(=O)CCNC(=O)c2ccc(Br)cc2)CC1 (stereo not drawn) |  | inactive: 27.2%
COc1ccc(Cn2nnnc2C(C(C)C)N2CCN(c3ccccc3OC)CC2)cc1 (stereo not drawn) |  | inactive: 26.3%
CC(=O)C1=NN(c2ccccc2)C(c2cccs2)N1c1ccc(N(C)C)cc1 (stereo not drawn) | inconclusive: 12.6 µM [inhibitor, full curve] | 
COc1ccc(OC)c(C(=O)COC(=O)c2ccc([N+](=O)[O-])o2)c1 |  | inactive: -9.57%
Cc1c(C)n(C)c2ccc(C(=O)NCCCN3CCN(c4ccc(F)cc4)CC3)cc12 | inconclusive: 25.1 µM [inhibitor, full curve] | 
CCC(=O)Nc1cccc2cccnc12 |  | inactive: 67.5%
Cc1ccc(-c2csc(=Nc3ccc(F)cc3)n2Cc2ccc3c(c2)OCO3)cc1C | inconclusive: 15.8 µM [inhibitor, partial curve, poor fit] | 
COc1ccccc1-c1nc(S(=O)(=O)c2ccccc2)c(N2CCCCC2)o1 | inconclusive: 70.8 µM [inhibitor, partial curve] | 
Cc1[nH]n(-c2ccccc2)c(=O)c1N=Nc1cccc(Cl)c1 | inconclusive: 3.98 µM [inhibitor, partial curve] | 
O=C(O)c1cc(S(=O)(=O)Nc2ccc3cn[nH]c3c2)ccc1Cl | inconclusive: 79.4 µM [inhibitor, partial curve] | 
CN(CCOc1cccc(C(F)(F)F)c1)Cc1ccccc1 | inconclusive: 15.8 µM [inhibitor, full curve, poor fit] | 
CC(=O)C1=NN(c2ccccc2)C(c2ccc3c(c2)OCO3)N1c1ccc(N2CCOCC2)cc1 (stereo not drawn) | inconclusive: 0.708 µM [inhibitor, full curve, poor fit] | 
O=C(O)c1cccnc1Sc1ccccc1Cl |  | inactive: 37.7%
Cc1cc(-c2n[nH]c(=S)n2/N=C/c2cccc([N+](=O)[O-])c2)n[nH]1 | inconclusive: 28.2 µM [inhibitor, single point] | 
O=C(COC(=O)c1cccc(Br)c1)NCc1ccco1 | inconclusive: 20 µM [inhibitor, partial curve, poor fit] | 
O=C(NCC(=O)N1CCC2(CC1)NCCc1[nH]cnc12)c1ccccc1F |  | inactive: 26.2%
Cc1cc(-c2ccccc2)n[nH]1 |  | inactive: 29.7%
CCC1(c2ccccc2)NC(=O)N(CC(=O)NCc2ccc(OC)cc2)C1=O (stereo not drawn) |  | inactive: 13.5%
C=C(C)CSC1=C(C#N)C(c2ccccc2Cl)CC(=O)N1 (stereo not drawn) | inconclusive: 63.1 µM [inhibitor, single point] | 
CN1CCN(C(c2ccccn2)c2cc(Cl)c3cccnc3c2O)CC1 (stereo not drawn) | active: 11.2 µM | 
CCN(CC)c1ccc(/C=C2\C(=O)N(c3nnc(C)c(=O)[nH]3)N=C2C)cc1 |  | inactive: -1.5%
COc1ccc(NC2CCCN(C(=O)c3cccs3)C2)cc1 (stereo not drawn) |  | inactive: 2.37%
COc1ccc(N=c2scc(-c3ccc(OC)cc3)n2CCO)cc1 | inconclusive: 8.91 µM [inhibitor, partial curve, poor fit] | 
CCOC(=O)c1sc2cc([N+](=O)[O-])cc(SCC(C)C)c2c1N | inconclusive: 15.8 µM [inhibitor, full curve] | 
COc1ccccc1-c1cc(C(=O)N/N=C/C=C/c2ccccc2[N+](=O)[O-])c2ccccc2n1 | inconclusive: 7.08 µM [inhibitor, single point] | 

Compound | Potency | activity change, negative = inhibition
COc1ccc(C(=O)C=Cc2cccs2)c(O)c1 | inconclusive: 56.2 µM [inhibitor, partial curve, poor fit] | 
O=C(CSc1nnc(-c2ccccn2)n1-c1ccc(Cl)cc1)Nc1ccc2c(c1)OCO2 |  | inactive: 40.1%
c1ccc2c(CN3CCSCC3)cccc2c1 | inconclusive: 56.2 µM [inhibitor, partial curve, poor fit] | 
Cc1ccc(NC(=O)CSc2nnc(COc3ccc(Cl)cc3)o2)c(C)c1 |  | inactive: 28.4%
COC(=O)c1cc(NC(=O)Cc2cccs2)cc(C(=O)OC)c1 | inconclusive: 35.5 µM [inhibitor, partial curve] | 
O=C(NCCc1nc2ccccc2[nH]1)C1CCC(=O)N(CCc2cccc(F)c2)C1 (stereo not drawn) |  | inactive: 31.2%
CCc1ccccc1N1CC(C(=O)Nc2cc(C)on2)CC1=O (stereo not drawn) |  | inactive: 34.3%
CCOC(=O)c1[nH]c2ccc(C)cc2c1N |  | inactive: -8.79%
Cc1cc(C)cc(NC(=O)CCN2C(=O)c3ccccc3Sc3ncccc32)c1 |  | inactive: 41%
Cn1cccc1/C=C1\SC(=Nc2ccc(O)cc2)NC1=O |  | inactive: 7.35%
COc1cc(/C=C(\C#N)C(=O)NCc2ccccc2)ccc1OCc1ccc(C(=O)O)cc1 |  | inactive: -16.1%
CN(C)CCCNC(=O)c1cc(C(=O)c2ccc(F)cc2)c[nH]1 | inconclusive: 89.1 µM [inhibitor, single point] | 
CN(C)c1ccc(CNC(=O)c2sc3ncccc3c2-n2cccc2)cc1 | inconclusive: 22.4 µM [inhibitor, partial curve] | 
CC(C)Cn1c(N)c(C(=O)COC(=O)C2Cc3ccccc3CN2S(C)(=O)=O)c(=O)n(C)c1=O (stereo not drawn) | inconclusive: 70.8 µM [inhibitor, partial curve, poor fit] | 
CC(C(=O)N1CCCc2ccccc21)N1CCN(c2ccccn2)CC1 (stereo not drawn) | inconclusive: 15.8 µM [inhibitor, full curve] | 
CCOC(=O)C1C(=O)N(C(=O)c2cncc(Br)c2)CC1c1ccccc1 (stereo not drawn) | inconclusive: 7.08 µM [inhibitor, single point] | 
COCC(C)NCc1ccccc1C (stereo not drawn) | inconclusive: 44.7 µM [inhibitor, partial curve, poor fit] | 
Oc1c(N=NC(=S)Nc2ccccc2F)c2ccccc2n1Cc1ccc(F)cc1 | inconclusive: 7.08 µM [inhibitor, partial curve] | 
C[C@@H]1CC=C[C@H]2[C@H]1C(=O)N(Cc1ccccc1)[C@H]2c1ccc(F)c(-c2ccc(N(C)C)cc2)c1 | inconclusive: 15.8 µM [inhibitor, full curve, poor fit] | 
CN(C)CCCN1c2ccc([N+](=O)[O-])cc2CCc2cc([N+](=O)[O-])ccc21 | inconclusive: 44.7 µM [inhibitor, partial curve] | 
NC1=NC(=O)/C(=C/c2ccccc2OCC(=O)Nc2ccc(F)cc2)S1 |  | inactive: 23.2% [at 57 µM]
COc1ccc(C2(C)CC(C)(C)Nc3ccccc32)cc1 (stereo not drawn) | inconclusive: 35.5 µM [inhibitor, partial curve] | 
CCN(Cc1ccccc1)c1ccc(N=Nc2nn(C)c(C)c2[N+](=O)[O-])cc1 | inconclusive: 7.08 µM [inhibitor, full curve, poor fit] | 
